Four substances from publication PMC8155084 can be followed below.

For assay [1], the target named is LexA-SUN1 (residues 1–210), N-terminus / nucleoplasmic region of SUN1 (human) (UniProt O94901). Description: two-hybrid; LexA-SUN1_(1-210) in pBTM116 with GAL4 activation domain fusions in pACT2, L40 yeast strain; β-galactosidase activity of the reporter gene measured.
In assay [2] the target is human SUN1 with a C-terminal GFP tag (human) (UniProt O94901). Briefly: nuclear membrane recruitment (localization) assay, immunofluorescence; GFP-tagged SUN1 or SUN1_(136-155)–MAJIN^DB and Myc-tagged SPDYA co-expressed by lentiviral co-infection in U-2 OS cells; recruitment of SPDYA to the nuclear membrane.
The target in assay [3] is human Flag-SUN1_(1-210) (human) (UniProt O94901). Briefly: co-IP; Flag-SUN1_(1-210), Myc-SPDYA and CDK2 ectopically expressed in HEK293T cells, with or without CDK2; immunoprecipitation with anti-Flag beads, immunoblotting.
Assay [4] concerns the target T1, human Flag-SUN1_(1-210) W150A (human) (UniProt O94901).
T1 sequence: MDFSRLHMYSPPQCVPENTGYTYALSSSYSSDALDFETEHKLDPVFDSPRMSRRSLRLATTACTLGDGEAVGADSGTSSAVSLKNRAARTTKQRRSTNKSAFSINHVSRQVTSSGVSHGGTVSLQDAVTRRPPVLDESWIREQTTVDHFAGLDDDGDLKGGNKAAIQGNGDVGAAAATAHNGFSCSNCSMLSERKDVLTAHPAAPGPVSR
Described as above.

Assay [5] concerns the target T2, human Flag-SUN1_(1-210) W150R (human) (UniProt O94901).
T2 sequence: T1 sequence with A150R
The description is as above.

Assay [6] addresses T3, human SUN1 W150A with a C-terminal GFP tag (human) (UniProt O94901).
T3 sequence: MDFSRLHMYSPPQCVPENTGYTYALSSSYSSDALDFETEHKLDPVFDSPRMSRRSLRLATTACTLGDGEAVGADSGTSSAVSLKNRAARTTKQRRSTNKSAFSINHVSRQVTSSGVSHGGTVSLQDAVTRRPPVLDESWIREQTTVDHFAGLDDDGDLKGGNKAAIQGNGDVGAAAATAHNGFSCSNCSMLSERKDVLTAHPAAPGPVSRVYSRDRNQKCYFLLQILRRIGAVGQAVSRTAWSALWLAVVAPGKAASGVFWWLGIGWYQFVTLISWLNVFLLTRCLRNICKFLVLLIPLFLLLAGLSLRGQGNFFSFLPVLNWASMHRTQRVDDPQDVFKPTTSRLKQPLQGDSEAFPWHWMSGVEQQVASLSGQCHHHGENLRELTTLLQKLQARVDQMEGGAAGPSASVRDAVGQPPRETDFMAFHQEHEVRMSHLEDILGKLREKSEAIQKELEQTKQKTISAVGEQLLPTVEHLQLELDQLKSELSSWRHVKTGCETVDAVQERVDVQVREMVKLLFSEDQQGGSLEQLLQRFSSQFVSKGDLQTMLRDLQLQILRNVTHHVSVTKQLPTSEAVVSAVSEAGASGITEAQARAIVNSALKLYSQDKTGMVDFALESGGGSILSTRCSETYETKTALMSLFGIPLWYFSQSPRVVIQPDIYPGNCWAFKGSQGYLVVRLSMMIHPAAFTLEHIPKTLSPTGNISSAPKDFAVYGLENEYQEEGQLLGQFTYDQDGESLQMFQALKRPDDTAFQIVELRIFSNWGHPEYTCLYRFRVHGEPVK
Briefly: nuclear membrane recruitment (localization) assay, immunofluorescence; GFP-tagged SUN1 or SUN1_(136-155)–MAJIN^DB and Myc-tagged SPDYA co-expressed by lentiviral co-infection in U-2 OS cells; recruitment of SPDYA to the nuclear membrane.

Assay [7] deals with T4, human SUN1 W150R with a C-terminal GFP tag (human) (UniProt O94901).
T4 sequence: T3 sequence with A150R
The description is as above.

Residue numbers refer to the chain shown, from its start. Results are given in words; binding and its absence hold for the method and conditions named. For some assays here: In cells and extracts the contact can be indirect. Some binding calls cover weakened binding; strength is not graded here. For some assays here: Where a sequence is shown, tags or fusion partners need not be part of it.

On to “GAD-fused SPDYA (Speedy/RINGO A) (from UniProt Q5MJ70 1-313)”, for which the binding entry in assay [1] is “binds”.
For “SPDYA fragment (residues 61–213), extended Ringo domain, Myc-tagged (U-2 OS) (from UniProt Q5MJ70 61-213) (domain or fragment)”, the binding entry in assay [2] was “binds”.
Take “human Myc-SPDYA (HEK293T) (from UniProt Q5MJ70 1-313)”: the binding entry in assay [3] is given as “binds”; in assay [4] it was “no binding”; in assay [5], “no binding”.
For “human SPDYA with an N-terminal Myc tag (U-2 OS) (from UniProt Q5MJ70 1-313)”, the binding result in assay [6] is “no binding”; in assay [7], “no binding”; in assay [2], “binds”.
